Experimental data reported in the antibiotic and cytotoxicity screens of Wong et al. (2023).
Some of the results follow.

Key:
[1] = system: HSkMC (human skeletal muscle cells); test: cytotoxicity call (relative viability < 0.9); conditions: 10 µM
[2] = system: HepG2; test: cytotoxicity call (relative viability < 0.9); conditions: 10 µM
[3] = system: S. aureus RN4220; test: growth inhibition call (relative growth <= 0.2); conditions: 50 µM

Row | Compound | cytotoxicity call [1] | cytotoxicity call [2] | growth inhibition call [3]
1 | COc1cccc(S(=O)(=O)N(C)C[C@@H]2Oc3cc(C#CCC(C)C)ccc3S(=O)(=O)N([C@@H](C)CO)C[C@@H]2C)c1 | inactive | inactive | inactive
2 | C[C@H]1CN([C@@H](C)CO)C(=O)Cc2cc(NC(=O)CCC(F)(F)F)ccc2O[C@H]1CN(C)Cc1ccc(-c2ccccc2)cc1 | inactive | active | inactive
3 | C[C@@H]1CN([C@H](C)CO)C(=O)c2cc(NC(=O)Nc3ccc(F)cc3)ccc2O[C@@H](C)CCCCO[C@H]1CN(C)C(=O)NC1CCCCC1 | inactive | inactive | inactive
4 | C[C@H](CO)N1C[C@H](C)[C@H](CN(C)S(=O)(=O)c2ccc(Cl)cc2)Oc2ccc(NC(=O)Nc3ccc(C(F)(F)F)cc3)cc2CC1=O | active | active | inactive
5 | C[C@@H]1CN([C@H](C)CO)C(=O)c2c(c3ccccc3n2C)-c2ccccc2CO[C@H]1CN(C)C(=O)CCC(F)(F)F | inactive | inactive | inactive
6 | COc1ccc([Si](C)(C)[C@H]2[C@H](CCO)O[C@@]3(C(=O)N(Cc4ccccc4)c4ccc(N(C=O)c5ccccc5)cc43)[C@@H]2C)cc1 | inactive | active | inactive
7 | C[C@@H]1CN([C@@H](C)CO)C(=O)Cc2cc(NC(=O)Cn3cnnn3)ccc2O[C@H]1CN(C)C(=O)Nc1cccc2ccccc12 | inactive | inactive | inactive
8 | C[C@H]1CCCCO[C@H](CN(C)C(=O)Cc2ccccc2)[C@@H](C)CN([C@@H](C)CO)C(=O)c2cc(NC(=O)C3CCCCC3)ccc2O1 | inactive | inactive | inactive
